The list shows a part of the results. Binding of human antibodies (heavy:light variable regions, tested as scFv in one mRNA-display pool) to influenza hemagglutinin, with or without the stem antibody CR9114 bound first. Score = (mean enrichment − median) / interquartile range of that screen; higher = more enriched, 0 = typical non-binder. Active = above the paper's cut-off per screen: stems 28; unblocked H1 Solomon Islands 5, H1 Michigan 3, H3 5, H5 19, H7 2.85, both B 5; blocked 9, 7, H5 10, H7 10, B Phuket 10, B Lee 11.5. Scores are scaled within each screen and are no affinities; replicates correlate at about 0.6 to 0.9, and antibodies rare in the pool are noisier.
B1: K77-2A05 (protein)
chain 1: EVQLVESGGGVVQPGRSLRLSCAASGFTFASYGLHWVRQAPGKGLEWVAHVSSEGSEKYYADSVKGRFTISRDNPKNKLYLQMTSLRAEDTAVYYCARDRSGYFQVDYWGQGTLVTVSS
chain 2: QSALTQPASVSGSPGQSITISCTGATSDVGNYNLVSWYQHHPGKVPKLILYEVTERPSGVSNRFSGSKSGNTASLTISGLQAEDEADYYCCSYATGGIFLFGTGTKVTVL
B2: K77-1B02 (protein)
chain 1: EVQLVESGGGLERPGGSLRLSCAASGFTFDDHGMSWVRQAPGKGLEWVSGINWNGGSTGYADSVKGRFTISRDNAKSSLFLQMNSLRAEDTALYYCARDSQQGIAAAGIFHYWGQGTLVTVSS
chain 2: DIQMTQSPSTLSASVGDRVTITCRASQSINRWLAWYQQKPGKAPKLLIYRASSLESGVPSRFSGSGSGTEFTLTISSLQPDDFATYFCQHYEGYSWTFGQGTKVDIK
B3: 014-10-1G06 (protein)
chain 1: QVQLVESGGGVVQPGRSLRLSCAASGFTFNSYAMHWVRQAPGKGLEWVAVISYDETNKHFSDSVKGRFTISRDNSKNTLLLQMDSLRIEDTAVYYCAREASFAFFDIWGQGTMVTVSS
chain 2: EIVMTQSPATLSVSPGERATLSCRASQSLTINLAWYQQRPGQAPRLLIYGASTRATGIPARFSGSGSGTEFTLTISSLQSEDFAVYYCQQYHNWPPLTFGGGTKVEIK
B4: C6-2-2C06 (protein)
chain 1: VQLLESGGGLVQPGGSLRLSCAASGFTFSFSAMSWIRQTPAKGLEWVAAISGNGGATFYTDSVKGRFTISRDNSKSTVHLQMHSLRAEDTAVYYCAKKSPNDYDHYWGQGALVTVSS
chain 2: DIQMTQSPSTLSSSVGDSVTITCRASQSISTYLAWYQQKPGKAPKVLIYQASILESGVPSRFSGSGSGTEFTLTISSLQPDDFATYYCQQYNSYSGTFGQGTKVEIK
B5: K77-2B03 (protein)
chain 1: EVQLVESGGIVVRPGGSLTLSCTTSGFTFDAHAMHWVRQAPGKGLEWVSLIGWDSAVTFYADSVRGRFNISRDNSKNSLYLQINSLRLEDTALYYCVRDDGSGSYGYHHFDLDVWGRGTMVIVSS
chain 2: DVVMTQSPLSLPVTLGQPASISCRSTQSLVFSDGDTYLNWFQQRPGQSPRRLIYKVSNRDSGVPDRFSGSGSGTDFTLRISRVEADDVGVYYCMQGTHWPLTFGGGTKVEI
B6: 042-10-2B05 (protein)
chain 1: QVQLVESGGGVVQTGRSLRLSCAASGFTFRNYAMHWVRQAPGKGLEWVAVILYDGNNEYYADFAKGRFTISRDNSKNIVYLQLNSLRPEDSAIYFCAKDGEYSGHESEVHWGQGTLVTVSS
chain 2: DIQMTQSPSTLSASVGDRVTITCRASQSVFSWLAWYQQKPGKAPKVLIYKASSLESGVPSRFSGSGSGTEFTLTISSLQPDDFATYYCQQYQSYSWTFGQGTKVEIK
B7: AG1-A01 (protein)
chain 1: VQLVESGGGFVQAGRSLRLSCAASGFIFDDFAMHWVRQAPGGGLEWVSHISSNSGLIVYAESVKGRFTISRDNAMDALYLQMNSLTIEDTAFYYCMKGGHYSDSRGYGSNWGRGTLVTVSS
chain 2: DIQMTQSPSSLSASVGDRVTITCRTSQAISNRLAWFQQKPGKAPKSLIYAASTLQTGVPSKFSGTGSGTDFTLTISSLQPEDFATYYCQQYKSFPLTFGRGTKVEIK

What follows are binders tested against Influenza A H1N1 A/Michigan/45/2015 hemagglutinin ectodomain (assay: mRNA display binding score; higher = more enriched on the antigen). Settings: antigen blocked with: 2 µM CR9114 IgG.
Experimental: (§1)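 A pool of natively paired antibodies, displayed as scFv on mRNA, was selected once on antigen-coated beads and sequenced before and after; two replicates.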

Row | Binder | mRNA display binding score
1 | B1 | inactive: -0.417
2 | B2 | inactive: -0.254
3 | B3 | inactive: 0.175
4 | B4 | inactive: 1.12
5 | B5 | inactive: -0.476
6 | B6 | inactive: 4.12
7 | B7 | inactive: 0.163

Same assay, conditions: antigen blocked with: nothing

Row | Binder | mRNA display binding score
8 | B1 | inactive: -0.707
9 | B2 | inactive: -0.00944
10 | B3 | inactive: 2.28
11 | B4 | inactive: -0.17
12 | B5 | inactive: 0.607
13 | B6 | inactive: 0.608
14 | B7 | inactive: 1.76

These binders were tested against Influenza A H1N1 A/Solomon Islands/3/2006 hemagglutinin ectodomain in the same assay as above. Settings: antigen blocked with: 2 µM CR9114 IgG.
Experimental: as §1

Row | Binder | mRNA display binding score
15 | B1 | inactive: -0.657
16 | B2 | inactive: -0.197
17 | B3 | inactive: 0.737
18 | B4 | active: 39.6
19 | B5 | inactive: -0.0355
20 | B6 | inactive: 1.51
21 | B7 | inactive: 1.04

Same assay, conditions: antigen blocked with: nothing

Row | Binder | mRNA display binding score
22 | B1 | inactive: -0.533
23 | B2 | inactive: -0.431
24 | B3 | inactive: 0.592
25 | B4 | active: 26.5
26 | B5 | inactive: -0.292
27 | B6 | inactive: 0.4
28 | B7 | inactive: 3.15

Each binder was assayed against Influenza A H3N2 A/Singapore/INFIMH-16-0019/2016 hemagglutinin ectodomain in the same assay as above. Settings: antigen blocked with: nothing.
Experimental: as §1

Row | Binder | mRNA display binding score
29 | B1 | inactive: -0.588
30 | B2 | inactive: -0.299
31 | B3 | inactive: 1.19
32 | B4 | inactive: -0.504
33 | B5 | inactive: 0.554
34 | B6 | inactive: 0.122
35 | B7 | inactive: 0.683

What follows are binders tested against Influenza A H5N1 A/Qinghai/1A/2005 hemagglutinin ectodomain in the same assay as above. Settings: antigen blocked with: 2 µM CR9114 IgG.
Experimental: as §1

Row | Binder | mRNA display binding score
36 | B1 | inactive: -0.722
37 | B2 | inactive: -0.498
38 | B3 | inactive: 0.75
39 | B4 | inactive: 0.242
40 | B5 | inactive: -0.141
41 | B6 | inactive: 0.852
42 | B7 | inactive: 0.473

Same assay, conditions: antigen blocked with: nothing

Row | Binder | mRNA display binding score
43 | B1 | inactive: -0.551
44 | B2 | inactive: -0.301
45 | B3 | inactive: 1.6
46 | B4 | inactive: -0.56
47 | B5 | inactive: -0.328
48 | B6 | inactive: 0.267
49 | B7 | inactive: 1.08

What follows are binders tested against Influenza A H7N9 A/Shanghai/2/2013 hemagglutinin ectodomain in the same assay as above. Settings: antigen blocked with: 2 µM CR9114 IgG.
Experimental: as §1

Row | Binder | mRNA display binding score
50 | B1 | inactive: -0.725
51 | B2 | inactive: 0.136
52 | B3 | inactive: -0.736
53 | B4 | inactive: 0.407
54 | B5 | inactive: 0.317
55 | B6 | inactive: -0.262
56 | B7 | inactive: -1.19

Same assay, conditions: antigen blocked with: nothing

Row | Binder | mRNA display binding score
57 | B1 | inactive: -0.798
58 | B2 | inactive: -0.1
59 | B3 | inactive: 2.27
60 | B4 | inactive: -0.241
61 | B5 | inactive: 0.778
62 | B6 | inactive: 0.592
63 | B7 | inactive: 0.29

These binders were tested against Influenza B/Lee/1940 hemagglutinin ectodomain in the same assay as above. Settings: antigen blocked with: 2 µM CR9114 IgG.
Experimental: as §1

Row | Binder | mRNA display binding score
64 | B1 | inactive: -0.4
65 | B2 | inactive: -0.0412
66 | B3 | inactive: 1.21
67 | B4 | inactive: -1.62
68 | B5 | inactive: -0.0533
69 | B6 | inactive: -0.75
70 | B7 | inactive: 1.08

Same assay, conditions: antigen blocked with: nothing

Row | Binder | mRNA display binding score
71 | B1 | inactive: -0.454
72 | B2 | inactive: -0.265
73 | B3 | inactive: 0.447
74 | B4 | inactive: -0.051
75 | B5 | inactive: -0.418
76 | B6 | inactive: -0.41
77 | B7 | inactive: 2.85

These binders were tested against Influenza B/Phuket/3073/2013 hemagglutinin ectodomain in the same assay as above. Settings: antigen blocked with: 2 µM CR9114 IgG.
Experimental: as §1

Row | Binder | mRNA display binding score
78 | B1 | inactive: -0.666
79 | B2 | inactive: -0.307
80 | B3 | inactive: 2
81 | B4 | inactive: 0.445
82 | B5 | inactive: 0.112
83 | B6 | inactive: -0.000462
84 | B7 | inactive: 0.205

Same assay, conditions: antigen blocked with: nothing

Row | Binder | mRNA display binding score
85 | B1 | inactive: -0.385
86 | B2 | inactive: -0.32
87 | B3 | inactive: 0.676
88 | B4 | inactive: -0.302
89 | B5 | inactive: -0.0386
90 | B6 | inactive: -0.225
91 | B7 | inactive: 2.33
